According to PubChem BioAssay AID2060337 (Molecular Pharmacology Branch, DTP, NCI, 2025):
Some entries of the source have several records that differ or are many. The list is limited to them. The source may hold further records. Values given together are repeats across runs, samples, wells, individuals or studies.

System: 832693-133-R-J1-PDC multi-cell spheroids, viability
Assay: Anticancer human tumor 832693-133-R-J1-PDC patient-derived head and neck squamous carcinoma cell line growth inhibition [IpAb]
Source text: Combinatorial screen of targeted agents with ipatasertib and abemaciclib in multi-cell type tumor spheroids
A high-throughput screen of multi-cell type tumor spheroids was designed to identify active combinations of targeted small molecules and ipatasertib or abemaciclib. Complex spheroids include a stromal component modeled by human endothelial cells (HUVEC) and fibroblasts modeled by human mesenchymal stem cells (MSCs). The concentration ranges selected for each drug and investigational agent were based upon clinically achievable concentrations if the clinical Cmax of the agent was known.
Compounds. […] If the clinical Cmax for an agent had not been determined, the highest concentration tested was 10 microM.
NCI60 Cell Culture. […] The optimal seeding densities for each of the cell lines at each time point assessed were determined prior to performing the concentration response studies. […]
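Note: spheroids exposed to the drugs for one week before the viability readout.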
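Throughout, for viability, T/C: 100% = DMSO vehicle control wells.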

IC50 (compound alone, run of 05/18/2021)	Compound	viability, T/C (compound alone 10 µM, stronger effect = lower value)
–	CC1(C)CCC(CN2CCN(c3ccc(C(=O)NS(=O)(=O)c4ccc(NCC5CCOCC5)c([N+](=O)[O-])c4)c(Oc4cnc5[nH]ccc5c4)c3)CC2)=C(c2ccc(Cl)cc2)C1	43.1% and 4.29%
706 nM, 740 nM, 526 nM, > 1 µM	CCN1CCN(Cc2ccc(Nc3ncc(F)c(-c4cc(F)c5nc(C)n(C(C)C)c5c4)n3)nc2)CC1	–
